Test results: ChEMBL document CHEMBL4888484, “Replenishing the malaria drug discovery pipeline: Screening and hit evaluation of the MMV Hit Generation Library 1 (HGL1) against asexual blood stage Plasmodium falciparum ,using a nano luciferase reporter read-out” (2022)
Hit rate of the full screen: of about 150,000 compounds, about 540 (0.36%) showed an effect of 50% or more. The list shows a part of the results.

Test system: Plasmodium falciparum
Assay: Primary screen in NF54 nanoGlo assay, in single point, at 2uM, 72h; a lower Z score goes with more inhibition
Assay type: functional, Erythrocyte
Details: timepoint 72 hour

Compound	% Inhibition [%]	Z score
Cc1cnn(C)c1C(=O)Nc1nc(-c2cccs2)cs1	-10	1.86
COCc1nc(C)cc(NCc2cc3n(n2)CCCO3)n1	-1	0.2
Cc1nn(C)c2nc(NCCCn3ccnc3C)sc12	-11	1.62
CCC1=C(C(=O)N(C)C2CCOC(c3ccc(F)cc3)C2)CCCO1 (centres undefined)	-4	0.54
CCc1nnnn1-c1ccccc1NC(=O)COC1CCCCC1	5	-0.65
COc1ccc2oc(C(=O)N3CCC[C@H](Oc4ccnc(C)n4)C3)cc2c1	17	-2.36
CCC1=NO[C@@H](Cn2ccc(-c3cccc(-c4ccncc4C)c3)n2)C1	6	-0.84
CNC(=O)N1CCn2c(C3CCCC3)nnc2[C@@H]1C	-7	0.96
Cc1ncsc1C(=O)NCc1nc(-c2cc[nH]c(=O)c2)no1	-9	1.6
CN(C[C@H]1CCCCO1)C(=O)c1cccc(-c2cncn2C)c1	-14	1.3
Cn1cc(NC(=O)N2CCC(N3CCOCC3)CC2)cn1	-5	0.62
CCOc1ccc(S(=O)(=O)N(C)C)cc1N	-2	0.29
Cc1ncc(CN(C)C(=O)C2CC(=O)NC(C)C2)s1 (centres undefined)	-6	0.53
Cc1nc(CN(CC(=O)O)CC(C)C)sc1C	0	0.02
COc1cc(F)c(CN2CCOC2=O)cc1OC	-8	1.5
COc1ccc(-c2c(C)nn(CC(=O)Nc3nn(C)c4ccccc34)c2C)cc1	-11	1.54
N#CC1(Cn2ccc(C(F)(F)F)n2)CCC1	4	-0.42
CC(C)(C)c1nsc(NCC2CCN(CC#N)CC2)n1	-8	1.48
Cc1nc(NCc2cccc3cnccc23)n(C)n1	-14	2.04
O=C(Nc1cnccc1O)c1ccc(N2CCc3ccccc3C2)cc1	-7	1.19
O=C(c1ccccc1Cl)N1CC(=O)N2CCc3ccccc3[C@@H]2C1	3	-0.44
c1ncn(C[C@H]2COC3(CCCCC3)O2)n1	-5	0.72

Compound	% Inhibition [%]	Z score
c1cnc(N2CCN(Cc3cnns3)CC2)nc1	-7	1
O=C(Nc1ccc(OC2CCC2)c(F)c1)N1CC[C@H](O)C1	35	-0.74
Cc1ccc2c(c1)N(S(=O)(=O)N1CCCC1)CCC2	5	-1.02
O=C(Cc1ccccc1Cl)N1CCc2[nH]nc(C(=O)N3CCN(c4ccc(F)cc4)CC3)c2C1	42	-5.61
COC(=O)CC1CCCN1C(=O)CC(O)COCc1ccccc1 (centres undefined)	-23	1.9
Cc1cc(CN(C)CCCc2ccccc2Cl)n[nH]1	-4	0.79
Cc1noc(C)c1CCC(=O)N(C)[C@H]1CCS(=O)(=O)C1	-12	1.31
c1c(C2CC2)noc1CN[C@H]1CCOC12CCCCC2	-14	2.34
C[C@]1(c2cccnc2)NC(=O)N(Cc2cc(C#N)ccc2F)C1=O	-13	1.76
C[C@H](NC(=O)c1ccccc1N1CCC(NC(=O)c2ccc(Cl)cc2)CC1)c1ccccc1	-3	0.37
CN(CCCNC(=O)[C@@H]1CC[C@H](C(=O)O)C1)c1ccccc1	1	-0.16
CCCNC(=O)CNc1c(Cl)cccc1C#N	-10	2
O=C(NC[C@H]1CCOC2(CCC2)C1)N1CCC=C(c2ccncc2)C1	-7	0.98
CCN([C@H]1CCCOC1)S(=O)(=O)c1cn(C)nc1C1CCCC1	-3	0.64
CC1(C)CC(C(=O)Nc2nc3nccnc3s2)C1	-5	0.99
CCc1ccccc1NC(=O)Cn1ccnc1CN1CCOCC1	-14	1.9
O=C1CC(c2ccccc2)N(C(=O)CCC2CCCO2)CCN1 (centres undefined)	-13	2.53
CCC(NS(=O)(=O)c1cccc2c1nnn2C)[C@H]1C[C@H](O)C1 (some centres undefined)	-3	0.51
O=C(Cc1cccc2ccccc12)N1CCC(Cc2ccccc2)CC1	9	-1.32
COc1ccc2cc1Oc1cccc(c1)CO[C@H]1CCN(C(=O)CN3CCC(O)CC3)C[C@H]1NC(=O)CC2	-23	2.88
O=C(Nc1ccsc1-c1nc(C2CC2)no1)c1cc(C2CC2)on1	-10	1.87
COc1ccc2nc(C)c(C(=O)N3CC(=O)N(C)[C@@H](C)C3)n2n1	3	-0.47

Compound	% Inhibition [%]	Z score
Cc1n[nH]cc1CN[C@@H](CN1CCCC1=O)c1cccc(C(F)(F)F)c1	-9	1.1
CNc1ccccc1C(C)(C)c1cc[nH]n1	30	-3.4
C[C@@H](CCNC(=O)OC(C)(C)C)Nc1cnn(-c2ccncc2)c1	-15	2.18
CC1(C)C(O)CC1NC(=O)Nc1ccncn1 (centres undefined)	-8	1.55
CCC[C@H](C)c1c(-c2ccccc2)ncn1CCS(C)(=O)=O	-13	1.24
COC(=O)N1CC2CCC1C(c1noc(C(C)c3cnn(C)c3)n1)C2 (centres undefined)	-7	1.2
Cc1ccc(F)c(C(=O)NCc2c(C(=O)O)oc3ccccc23)c1	-2	0.21
COc1cc(Br)ccc1CCCN1CCCS1(=O)=O	-2	0.33
CCCC[C@@H]1C[C@@H]1C(=O)NCCc1noc(C(F)(F)F)n1	-7	1.35
COc1cccc(N2CCN(C(=O)c3ccc4c(c3)OCCO4)CC2)c1	-1	0.14
CCOc1ccccc1NC(=O)Cn1nc(-c2ccco2)n(C2CC2)c1=O	-18	2.03
c1ccc(-c2cccc(N3CCC(N4CCOCC4)CC3)c2)cc1	-8	1.36
CCc1noc(C)c1CNC(=O)N1CC[C@H](O)[C@@H](C2CCCC2)C1	5	-0.98
Cc1nc([C@H](C)N(C)S(=O)(=O)c2c(C)nn(C)c2Cl)c(C)s1	-19	2.61
OC[C@H]1CCCCN1CCNCc1c(Cl)cncc1Cl	-13	2.05
CCC(CC)(CC)C(=O)NC[C@H]1COCCN1Cc1ccc2c(c1)OCCO2	19	-2.44
O=C(NC[C@@H](O)Cc1ccc(F)cc1F)c1ccoc1	-18	3.41
O=C([C@H]1CC12CCN(CC1CC1)CC2)N1CCN(C/C=C/c2ccccc2)CC1	-6	1.23
CN(CCc1cnn(C)c1)Cc1ccc(Cl)o1	-1	0.13
CCCN1C(=O)c2ccccc2C(C(=O)N2CCC(C)CC2)C1c1cc(OC)c(OC)c(OC)c1 (centres undefined)	-6	0.68
C[C@H]1CN(C(=O)Cn2ccc(=O)[nH]c2=O)C[C@]1(O)C1CCC1	-9	1.17
c1ccc(OCCNC2CCN(c3ncnc4c3CCC4)CC2)cc1	-12	1.7

Compound	% Inhibition [%]	Z score
Cc1cc(CNC(=O)c2ccc3oc(N(C)C)nc3c2)n(C)n1	6	-0.69
CC[C@H](C)NC(=O)C(=O)NCCC1CCCC1	-4	0.44
CCn1nc(C(=O)O)c2c1CC[C@H](N1CCN(C/C=C/c3ccccc3)CC1)C2	-10	1.54
Cc1ccc(OCCN)c(C(=O)NC[C@H]2CN(S(C)(=O)=O)CCO2)c1	-7	0.97
O=C(c1cc(Cl)ccc1F)N1CCCC[C@@H]1CN1CCCC1	-18	2.27
O=S(=O)(Nc1cccc(-c2ccc(N3CCCCC3)nn2)c1)c1ccc(F)cc1F	-18	2.51
CCCC1(O)CCN(C(=O)CC(C)(C)Cc2ccc(Cl)cc2)CC1	0	-0.04
c1ccc(-n2cc(-c3noc(C4CCCCC4)n3)nn2)cc1	-19	3.83
CC(C)NC(=O)N(CCN1CCOCC1)CC(=O)N1N=C(c2cccn2C)C[C@H]1c1ccc2c(c1)OCO2	-13	2.07
O=C(Nc1cccc(OCCF)c1)N1CCC2(c3ccccc3)C(C1)C2(F)F (centres undefined)	-1	0.1
O=C(c1ccco1)N1CCC(C(=O)N2CCN(c3ccccc3Cl)CC2)CC1	0	0
CCc1nccn1C1CCCN(C(C)C(=O)Nc2cc(C)no2)C1 (centres undefined)	-4	0.44
Cn1cc(C(=O)OCC(=O)Nc2ccc(S(N)(=O)=O)cc2)cn1	0	-0.04
Cc1nn(C2CCS(=O)(=O)C2)c2c1C(c1ccc(Cl)cc1Cl)CC(O)=N2 (centres undefined)	-6	0.75
O=C(C[C@H]1CCCO1)Nc1ccncc1F	-9	1.11
O=C(c1ccc(N2CCOCC2)nc1)N1CCC(c2c[nH]c3ccccc23)CC1	-1	0.16
C[C@H]1c2ccccc2CCN1C(=O)CCn1nnc2ccccc2c1=O	-11	1.73
Cc1ccc(CC(=O)NC(C)(C)C)cc1	9	-1.32
Cc1ccc(S(=O)(=O)[C@H]2CS(=O)(=O)C[C@@H]2NCCC(C)C)cc1	8	-1.05
C#CCN(C(=O)CC1C=CCC1)C1CCS(=O)(=O)C1 (centres undefined)	-4	0.49
COc1ccc(C(=O)NCc2ccc3c(c2)OCO3)nn1	-2	0.3
